# Experimental data reported in the supplement of paper PMC7826260.
# This is one part of the list. The data describe in vitro nicking of single-stranded DNA by Rep domains at 3 µM enzyme and 37 °C for 1 h; the strands have 90 letters, of which the middle is given. Uncut reads are compared with the no-enzyme pool on a log2 scale; uncut sequences lie near 0, cut ones below; no hit call is given. Shares of all reads are compared, so uncut sequences can rise above 0 when many others are cut.
# Tested on: T1, Rep nickase domain of Muscovy duck circovirus
# T1 sequence (protein, residues 1-111, tag omitted): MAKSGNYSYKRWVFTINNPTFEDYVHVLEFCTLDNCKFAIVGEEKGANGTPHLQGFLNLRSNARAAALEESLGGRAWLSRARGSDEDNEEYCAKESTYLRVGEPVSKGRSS
# Assay: uncleaved DNA left, log2 of reads against the no-enzyme library (log2 ratio); higher = less cleavage (more negative = more Rep cleavage of the k-mer); sequences stand for … in CTCGTCCG…ACCGGAGA
# Description: (§1)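 A pool of 90-nt single-stranded DNAs with seven random bases just before the constant AC of the nick site (name = the seven bases) was cut by 3 µM recombinant His6-SUMO-tagged Rep nickase domain (300 nM DNA, 50 mM HEPES pH 8.0, 50 mM NaCl, 1 mM MnCl2, 1 h, 37 °C, three replicates). Uncut DNA was amplified and sequenced.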
row,Sequence,uncleaved DNA left (log2)
1,GGATCCC,0.102
2,ATTCCCT,-0.938
3,TGGATTC,0.0278
4,TAAAGGT,0.0821
5,AATTGGA,-0.146
6,TACGGTC,0.0619
7,GTCTACC,6.25e-05
8,TCCTACT,-3.25
9,TCGCACC,-0.0374
10,TAACAGC,-0.0144
11,CACCTAT,0.0442
12,AAAGCCT,0.0185
13,CGTCGTG,0.0984
14,AGTGCAC,0.0576
15,CAAGAAC,0.0653
16,CGCCAGC,0.0535
17,CCGCTGC,-0.131
18,CAGGTAT,0.222
19,CGTCAGT,0.00838
20,ACTCGAC,0.123

row,Sequence,uncleaved DNA left (log2)
1,AACGTAC,0.0648
2,ACAACGG,0.0106
3,ACGAAAC,0.116
4,TGCCTTA,0.0247
5,GTAATGG,-0.0248
6,GCTAACG,-0.0233
7,AGGTGTG,-0.00344
8,ACCCTCC,0.13
9,AGGCGGC,0.0235
10,GATTTGT,-2.7
11,CTGATAA,0.0721
12,CCCCCAA,-0.306
13,GGTATGG,0.0477
14,CTTACGC,-0.0222
15,ACGCTTT,0.126
16,ATCGCCT,-0.106
17,CCTGCGG,0.039
18,CAGCAGT,0.222
19,CTTCGGC,0.168
20,CTTTCTC,-0.105

# Tested on: T2, Rep nickase domain of banana bunchy top virus
# T2 sequence (protein, residues 1-94, tag omitted): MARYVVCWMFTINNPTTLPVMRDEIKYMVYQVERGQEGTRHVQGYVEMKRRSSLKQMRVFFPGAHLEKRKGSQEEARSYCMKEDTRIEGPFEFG
# Assay: as above
# Description: as §1
row,Sequence,uncleaved DNA left (log2)
1,GGATCCC,0.154
2,ATTCCCT,-0.311
3,TGGATTC,-0.0287
4,TAAAGGT,0.0177
5,AATTGGA,-0.0579
6,TACGGTC,-0.0339
7,GTCTACC,-0.0174
8,TCCTACT,-0.117
9,TCGCACC,-0.127
10,TAACAGC,-0.06
11,CACCTAT,-0.156
12,AAAGCCT,0.0588
13,CGTCGTG,0.0555
14,AGTGCAC,0.11
15,CAAGAAC,0.0352
16,CGCCAGC,-0.119
17,CCGCTGC,-0.351
18,CAGGTAT,0.0757
19,CGTCAGT,0.0114
20,ACTCGAC,0.00263

row,Sequence,uncleaved DNA left (log2)
1,AACGTAC,-0.036
2,ACAACGG,0.0559
3,ACGAAAC,0.0223
4,TGCCTTA,-0.0789
5,GTAATGG,0.0327
6,GCTAACG,-0.0647
7,AGGTGTG,-0.188
8,ACCCTCC,0.0804
9,AGGCGGC,0.00103
10,GATTTGT,-1.99
11,CTGATAA,0.101
12,CCCCCAA,-0.109
13,GGTATGG,0.162
14,CTTACGC,-0.0633
15,ACGCTTT,0.0581
16,ATCGCCT,-0.199
17,CCTGCGG,0.0564
18,CAGCAGT,-0.0425
19,CTTCGGC,0.0757
20,CTTTCTC,-0.00452

# Tested on: T3, Rep nickase domain of cabbage leaf curl virus
# T3 sequence (protein, residues 1-116, tag omitted): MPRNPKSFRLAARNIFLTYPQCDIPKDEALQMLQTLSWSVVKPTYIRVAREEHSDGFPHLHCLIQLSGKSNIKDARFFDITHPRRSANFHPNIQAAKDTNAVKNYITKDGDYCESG
# Assay: as above
# Description: as §1
row,Sequence,uncleaved DNA left (log2)
1,GGATCCC,0.482
2,ATTCCCT,-0.273
3,TGGATTC,0.312
4,TAAAGGT,-2.43
5,AATTGGA,-0.182
6,TACGGTC,0.171
7,GTCTACC,0.248
8,TCCTACT,-0.446
9,TCGCACC,0.0184
10,TAACAGC,-0.493
11,CACCTAT,-0.166
12,AAAGCCT,-0.593
13,CGTCGTG,-0.361
14,AGTGCAC,-0.019
15,CAAGAAC,-0.174
16,CGCCAGC,0.195
17,CCGCTGC,-0.414
18,CAGGTAT,0.205
19,CGTCAGT,-0.0464
20,ACTCGAC,-0.0626

row,Sequence,uncleaved DNA left (log2)
1,AACGTAC,-0.204
2,ACAACGG,-0.386
3,ACGAAAC,-0.115
4,TGCCTTA,0.00434
5,GTAATGG,0.25
6,GCTAACG,-0.855
7,AGGTGTG,-0.581
8,ACCCTCC,0.0944
9,AGGCGGC,-0.0862
10,GATTTGT,0.151
11,CTGATAA,-0.106
12,CCCCCAA,-0.0445
13,GGTATGG,0.476
14,CTTACGC,-0.109
15,ACGCTTT,-0.252
16,ATCGCCT,-0.351
17,CCTGCGG,0.508
18,CAGCAGT,-0.348
19,CTTCGGC,0.0239
20,CTTTCTC,0.0144
